{
  "source": "the supplement of paper PMC3334620",
  "note": "The full ranking holds about 33,000 sequences; the median of “E-score (-0.5 to 0.5)” is about -0.012, and the highest 2% start at about 0.29. This is one part of the list.",
  "data": [
    {"biological_target": "T1, Ybr033w (UniProt P38073)", "T1 sequence": "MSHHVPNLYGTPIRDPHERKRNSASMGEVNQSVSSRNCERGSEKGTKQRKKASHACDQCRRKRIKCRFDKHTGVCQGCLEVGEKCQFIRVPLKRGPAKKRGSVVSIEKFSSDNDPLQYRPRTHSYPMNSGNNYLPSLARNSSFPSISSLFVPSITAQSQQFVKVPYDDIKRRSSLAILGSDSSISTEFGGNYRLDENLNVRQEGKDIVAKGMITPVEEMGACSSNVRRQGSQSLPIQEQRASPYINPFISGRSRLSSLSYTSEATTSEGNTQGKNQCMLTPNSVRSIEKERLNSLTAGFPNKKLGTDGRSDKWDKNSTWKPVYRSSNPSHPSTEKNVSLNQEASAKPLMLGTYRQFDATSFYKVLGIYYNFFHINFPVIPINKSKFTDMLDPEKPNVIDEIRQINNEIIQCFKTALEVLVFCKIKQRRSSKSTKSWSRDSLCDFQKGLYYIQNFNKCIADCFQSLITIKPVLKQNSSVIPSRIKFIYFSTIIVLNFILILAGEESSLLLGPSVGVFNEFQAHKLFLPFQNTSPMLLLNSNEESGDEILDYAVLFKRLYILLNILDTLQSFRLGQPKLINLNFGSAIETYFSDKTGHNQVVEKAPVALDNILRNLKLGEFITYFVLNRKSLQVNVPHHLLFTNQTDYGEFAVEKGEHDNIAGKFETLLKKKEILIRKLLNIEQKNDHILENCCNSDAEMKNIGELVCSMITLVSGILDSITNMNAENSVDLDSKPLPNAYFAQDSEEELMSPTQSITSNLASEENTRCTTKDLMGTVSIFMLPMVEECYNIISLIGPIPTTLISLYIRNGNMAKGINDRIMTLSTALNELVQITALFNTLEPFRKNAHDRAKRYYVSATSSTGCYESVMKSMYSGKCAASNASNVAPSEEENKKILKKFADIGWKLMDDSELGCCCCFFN", "experiment": "PBM E-score (8-mer binding enrichment) (E-score (-0.5 to 0.5)); higher = stronger / more preferred TF binding; most listed sequences are background and not binding sites", "settings": "protein concentration: 200 nM; construct: GST-full length", "method_in_brief": "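E-scores (a modified Wilcoxon-Mann-Whitney statistic) were assigned by the Universal PBM Analysis Suite to every ungapped eight-base word pooled with its reverse complement. The input came from universal all-10-mer Agilent arrays made double-stranded by primer extension and probed with GST-tagged yeast transcription factors at about 100-200 nM. Fluorescent anti-GST detected bound protein, and masliner normalised the scans.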", "values": [
      {"sequence": "AACGGGCG", "PBM E-score": -0.222},
      {"sequence": "AATACATA", "PBM E-score": 0.0798},
      {"sequence": "GGTTACAA", "PBM E-score": 0.194},
      {"sequence": "AAAGCACA", "PBM E-score": 0.0531},
      {"sequence": "AAGAAATC", "PBM E-score": 0.146},
      {"sequence": "CGCAGGTC", "PBM E-score": -0.168},
      {"sequence": "CCCCGTGA", "PBM E-score": -0.173},
      {"sequence": "GAGAATAA", "PBM E-score": 0.252},
      {"sequence": "ACAGCCAT", "PBM E-score": 0.0803},
      {"sequence": "AATGGGGG", "PBM E-score": -0.342},
      {"sequence": "AGTTCGAT", "PBM E-score": -0.00142},
      {"sequence": "AACTCCGT", "PBM E-score": 0.116},
      {"sequence": "AAGAAAGC", "PBM E-score": -0.134},
      {"sequence": "TATCCTCA", "PBM E-score": 0.0552},
      {"sequence": "AGGCAACT", "PBM E-score": 0.174},
      {"sequence": "AACGAAAT", "PBM E-score": 0.126},
      {"sequence": "AAGGGACC", "PBM E-score": -0.0405},
      {"sequence": "ACGGTAAG", "PBM E-score": -0.0649},
      {"sequence": "GCGGGTAC", "PBM E-score": -0.087},
      {"sequence": "ACAACACA", "PBM E-score": -0.067},
      {"sequence": "CAACCGAA", "PBM E-score": 0.0309},
      {"sequence": "AGAATGGC", "PBM E-score": 0.0186},
      {"sequence": "TCATCGCA", "PBM E-score": -0.084},
      {"sequence": "ACTAGCCC", "PBM E-score": -0.131},
      {"sequence": "AGGGAGTG", "PBM E-score": -0.202},
      {"sequence": "AGCACGTG", "PBM E-score": -0.0372},
      {"sequence": "AATAGTGA", "PBM E-score": 0.167},
      {"sequence": "AGAGGCAG", "PBM E-score": -0.166},
      {"sequence": "CCTCATAG", "PBM E-score": -0.00917},
      {"sequence": "AACTGTAT", "PBM E-score": 0.188},
      {"sequence": "GCTAGTAC", "PBM E-score": 0.0569},
      {"sequence": "CCAGGAAG", "PBM E-score": -0.00416},
      {"sequence": "CGGCTACC", "PBM E-score": -0.128},
      {"sequence": "AATGCGTC", "PBM E-score": -0.203},
      {"sequence": "CAGAGATA", "PBM E-score": 0.169},
      {"sequence": "GTTCCTTA", "PBM E-score": -0.00501},
      {"sequence": "ACGGGAAG", "PBM E-score": -0.123},
      {"sequence": "CAGAGTAA", "PBM E-score": -0.0159},
      {"sequence": "AGAGCCTC", "PBM E-score": -0.278},
      {"sequence": "CTGGCTCC", "PBM E-score": -0.142},
      {"sequence": "CTGAACCC", "PBM E-score": -0.024},
      {"sequence": "CCAACGAA", "PBM E-score": -0.0234},
      {"sequence": "GAAGTTCC", "PBM E-score": -0.0574},
      {"sequence": "GTACTCCA", "PBM E-score": -0.0187},
      {"sequence": "GAATTCTA", "PBM E-score": 0.176},
      {"sequence": "AAGTAACC", "PBM E-score": 0.0992},
      {"sequence": "GCGACAAC", "PBM E-score": 0.0118},
      {"sequence": "ATGCGTCA", "PBM E-score": -0.127},
      {"sequence": "GCCTAATA", "PBM E-score": -0.0893},
      {"sequence": "CCTCATTC", "PBM E-score": -0.0147},
      {"sequence": "TAGACCGA", "PBM E-score": -0.0248},
      {"sequence": "CTATAAAA", "PBM E-score": 0.112},
      {"sequence": "ATCGTATG", "PBM E-score": 0.0892},
      {"sequence": "CCGGCGGC", "PBM E-score": -0.288},
      {"sequence": "CCACAAGA", "PBM E-score": 0.0969},
      {"sequence": "CACGACAC", "PBM E-score": 0.0137},
      {"sequence": "AGACACAC", "PBM E-score": -0.239},
      {"sequence": "GGATAAAA", "PBM E-score": 0.397},
      {"sequence": "ATAGCATG", "PBM E-score": -0.128},
      {"sequence": "ATGTTGTC", "PBM E-score": -0.106},
      {"sequence": "CGAACCCC", "PBM E-score": -0.23},
      {"sequence": "AGGTGCGC", "PBM E-score": -0.0903},
      {"sequence": "AGGGGCAC", "PBM E-score": -0.288},
      {"sequence": "GTCCGAAC", "PBM E-score": -0.194},
      {"sequence": "CGCGTATA", "PBM E-score": -0.0208},
      {"sequence": "CCGTGGAC", "PBM E-score": -0.262},
      {"sequence": "CACAAACG", "PBM E-score": 0.0842},
      {"sequence": "AGTTCAGG", "PBM E-score": -0.0606},
      {"sequence": "CGGGATAA", "PBM E-score": 0.251},
      {"sequence": "AGTGGACA", "PBM E-score": 0.0894},
      {"sequence": "CCTTTGGC", "PBM E-score": -0.181},
      {"sequence": "ATCTAGCG", "PBM E-score": -0.132},
      {"sequence": "CACCTCCG", "PBM E-score": -0.0269},
      {"sequence": "CGAATTTC", "PBM E-score": 0.237},
      {"sequence": "CACTAGAA", "PBM E-score": 0.106},
      {"sequence": "AACAACTA", "PBM E-score": 0.147},
      {"sequence": "TCCAGCGA", "PBM E-score": 0.0135},
      {"sequence": "GCAACTAC", "PBM E-score": 0.0891},
      {"sequence": "CGAGGAGC", "PBM E-score": -0.135},
      {"sequence": "TAGAACAA", "PBM E-score": 0.119},
      {"sequence": "GTTACCGA", "PBM E-score": -0.156},
      {"sequence": "CTCTATGC", "PBM E-score": -0.0283},
      {"sequence": "CACGACTA", "PBM E-score": -0.0847},
      {"sequence": "GCTAGCCA", "PBM E-score": -0.132},
      {"sequence": "CACGGGCC", "PBM E-score": -0.35},
      {"sequence": "CGTTGGTC", "PBM E-score": -0.103},
      {"sequence": "CCTTTCGC", "PBM E-score": 0.00472},
      {"sequence": "ACTCCTAT", "PBM E-score": 0.101},
      {"sequence": "CACCGTAG", "PBM E-score": -0.231},
      {"sequence": "CGGGTACA", "PBM E-score": -0.179},
      {"sequence": "CGCCCGCG", "PBM E-score": -0.131},
      {"sequence": "CAAGTCGC", "PBM E-score": -0.159},
      {"sequence": "CCATCTCA", "PBM E-score": -0.0651},
      {"sequence": "ACCTTCAA", "PBM E-score": 0.0246}
    ]}
  ]
}
